Reference: PubChem BioAssay AID180 (DTP/NCI, 2004)
Some entries of the source have several records that differ or are many. They are shown here; other results are not. An entry can have further records. The records of an entry are repeats across runs, samples, wells, individuals or studies. Signs of the kind (2×) count equal records among those shown.

Tested on: BDF1 mice, Adenocarcinoma 755 s.c., tumor weight T/C
Assay: NCI In Vivo Anticancer Drug Screen. Data for tumor model Adenocarcinoma 755 (subcutaneous) in B6D2F1 (BDF1) mice
Settings: endpoint: mean tumor weight, higher = larger tumour
Procedure, shortened: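 Readout: T/C, i.e. treated-group measurement over vehicle-control measurement. Endpoint is survival or tumor size in tumor-bearing mice given compound.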

[1] = dose: 3.7 mg/kg/injection, schedule: Q01DX011 (ip), vehicle: methylcellulose (MC)
[2] = dose: 15.0 mg/kg/injection, schedule: Q01DX011 (ip), vehicle: methylcellulose (MC)
[3] = dose: 200.0 mg/kg/injection, schedule: Q01DX011 (ip), vehicle: methylcellulose (MC)

For `Cn1c(N)c(N=O)c(=O)n(C)c1=O`, the T/C (dose: 700.0 mg/kg/injection, schedule: Q01DX011 (oral), vehicle: other) was 89 % of control and 121 % of control and the T/C (dose: 1400.0 mg/kg/injection, schedule: Q01DX011 (oral), vehicle: other) was 86 % of control and 116 % of control.

For `CCCCCCCCOP(=O)(N1CC1)N1CC1`, the T/C (dose: 0.5 mg/kg/injection, schedule: Q01DX011 (ip), vehicle: saline) was 27 % of control and 62 % of control and the T/C (dose: 3.0 mg/kg/injection, schedule: Q01DX011 (ip), vehicle: saline) was 49 % of control and 76 % of control.

With `CCNc1nncs1` the T/C (dose: 45.5 mg/kg/injection, schedule: Q01DX011 (ip), vehicle: carboxymethylcellulose (CMC)) was 53 % of control and 110 % of control and the T/C (dose: 113.8 mg/kg/injection, schedule: Q01DX011 (ip), vehicle: carboxymethylcellulose (CMC)) was 32 % of control and 112 % of control.

In the case of `N=[N+]=CC(=O)OCC(N)C(=O)O` (stereo unspecified), the T/C (dose: 2.88 mg/kg/injection, schedule: Q01DX011 (ip), vehicle: carboxymethylcellulose (CMC)) was 52 % of control and 110 % of control.

`Cc1ccc(C(=O)[O][Hg][CH2]C2COC([CH2][Hg][O]C(=O)c3ccc(C)cc3)CO2)cc1` (stereo unspecified) was tested, and the T/C (dose: 12.5 mg/kg/injection, schedule: Q01DX011 (ip), vehicle: methylcellulose (MC)) was 66 % of control (2×) and 92 % of control.

`C=CCC1(CCC)C(=O)NC(=O)NC1=O` was tested, and the T/C (dose: 35.0 mg/kg/injection, schedule: Q01DX011 (ip), vehicle: methylcellulose (MC)) was 44 % of control, 59 % of control, 88 % of control.

For `O=[As]O`, the T/C (dose: 5.2 mg/kg/injection, schedule: Q01DX011 (ip), vehicle: carboxymethylcellulose (CMC)) was 53 % of control and 91 % of control and the T/C (dose: 6.5 mg/kg/injection, schedule: Q01DX011 (ip), vehicle: carboxymethylcellulose (CMC)) was 58 % of control, 62 % of control, 103 % of control.

With `OCCn1cnc2c(SCc3ccccc3Cl)ncnc21` the T/C (dose: 75.0 mg/kg/injection, schedule: Q01DX011 (ip), vehicle: methylcellulose (MC)) was 7 % of control and 39 % of control.

In the case of `CN(C)[C@@H]1C(=O)C(C(=O)NCNCCCC(=O)O)=C(O)[C@@]2(O)C(=O)C3=C(O)c4c(O)cccc4[C@@](C)(O)[C@H]3C[C@@H]12`, the T/C (dose: 525.0 mg/kg/injection, schedule: Q01DX011 (ip), vehicle: saline) was 3 % of control and 69 % of control.

For `CC(=O)OCC1OC(n2cnc3c(=O)[nH]cnc32)CC1OC(C)=O` (stereo unspecified), the T/C (dose: 30.0 mg/kg/injection, schedule: Q01DX011 (ip), vehicle: carboxymethylcellulose (CMC)) was 71 % of control and 99 % of control and the T/C (dose: 240.0 mg/kg/injection, schedule: Q01DX011 (ip), vehicle: carboxymethylcellulose (CMC)) was 78 % of control and 123 % of control.

`Nc1ncnc2c1cnn2CCCl` was tested, and the T/C (dose: 2.0 mg/kg/injection, schedule: Q01DX011 (ip), vehicle: carboxymethylcellulose (CMC)) was 48 % of control and 112 % of control and the T/C (dose: 8.0 mg/kg/injection, schedule: Q01DX011 (ip), vehicle: carboxymethylcellulose (CMC)) was 52 % of control and 88 % of control.

For `C/C(=N/NC(=O)c1ccncc1)c1ccc(Cl)c(Cl)c1`, the T/C [1] was 44 % of control and 93 % of control, the T/C (dose: 7.5 mg/kg/injection, schedule: Q01DX011 (ip), vehicle: methylcellulose (MC)) was 51 % of control and 92 % of control and the T/C [2] was 34 % of control and 102 % of control. For the same compound, the T/C (dose: 30.0 mg/kg/injection, schedule: Q01DX011 (ip), vehicle: methylcellulose (MC)) was 37 % of control and 80 % of control.

With `Cn1cnc([N+](=O)[O-])c1Sc1ncnc2nc[nH]c12` the T/C (dose: 1.25 mg/kg/injection, schedule: Q01DX011 (ip), vehicle: methylcellulose (MC)) was 43 % of control and 69 % of control.

In the case of `O=C(O)CC(O)(CC(=O)O)C(=O)O.[Ga]`, the T/C (dose: 2.5 mg/kg/injection, schedule: Q01DX011 (ip), vehicle: carboxymethylcellulose (CMC)) was 12 % of control and 44 % of control and the T/C (dose: 5.0 mg/kg/injection, schedule: Q01DX011 (ip), vehicle: carboxymethylcellulose (CMC)) was 9 % of control and 35 % of control.

`C[C@H]1C[C@H]2[C@@H]3CC[C@](O)(C(=O)CO)[C@@]3(C)C[C@H](O)[C@]2(F)[C@@]2(C)C=CC(=O)C=C12` was tested, and the T/C (dose: 3.0 mg/kg/injection, schedule: Q01DX011 (sc), vehicle: steriod suspending solution) was 52 % of control and 83 % of control and the T/C (dose: 15.0 mg/kg/injection, schedule: Q01DX011 (sc), vehicle: steriod suspending solution) was 18 % of control and 51 % of control.

`OCCOCCN1CCN(CCCN2c3ccccc3Sc3ccc(C(F)(F)F)cc32)CC1` was tested, and the T/C (dose: 10.0 mg/kg/injection, schedule: Q01DX011 (ip), vehicle: saline) was 48 % of control and 99 % of control.

With `CC(=O)[C@H]1CC[C@H]2[C@@H]3C[C@H](F)C4=CC(=O)CC[C@]4(C)[C@H]3C(=O)C[C@]12C` the T/C (dose: 14.0 mg/kg/injection, schedule: Q01DX011 (sc), vehicle: steriod suspending solution) was 35 % of control, 52 % of control, 108 % of control and the T/C (dose: 27.5 mg/kg/injection, schedule: Q01DX011 (sc), vehicle: steriod suspending solution) was 26 % of control and 53 % of control.

`CN(C)c1nc(N)nc(Nc2ccc(Br)cc2)c1N=O` was tested, and the T/C (dose: 50.0 mg/kg/injection, schedule: Q01DX011 (ip), vehicle: carboxymethylcellulose (CMC)) was 26 % of control, 37 % of control, 92 % of control.

With `CCCn1cnc2c(SCc3ccc(Br)cc3)nc(N)nc21` the T/C (dose: 125.0 mg/kg/injection, schedule: Q01DX011 (ip), vehicle: methylcellulose (MC)) was 10 % of control and 43 % of control.

`C1OC1C1CO1` (stereo unspecified) was tested, and the T/C (dose: 4.88 mg/kg/injection, schedule: Q01DX011 (ip), vehicle: carboxymethylcellulose (CMC)) was 63 % of control and 114 % of control, the T/C (dose: 6.1 mg/kg/injection, schedule: Q01DX011 (ip), vehicle: carboxymethylcellulose (CMC)) was 38 % of control and 86 % of control and the T/C (dose: 12.2 mg/kg/injection, schedule: Q01DX011 (ip), vehicle: carboxymethylcellulose (CMC)) was 51 % of control, 86 % of control, 90 % of control.

For `CN(C)/N=N/c1nc[nH]c1C(N)=O`, the T/C (dose: 40.0 mg/kg/injection, schedule: Q01DX011 (ip), vehicle: carboxymethylcellulose (CMC)) was 31 % of control and 67 % of control, the T/C (dose: 80.0 mg/kg/injection, schedule: Q01DX011 (ip), vehicle: carboxymethylcellulose (CMC)) was 42 % of control and 68 % of control and the T/C (dose: 125.0 mg/kg/injection, schedule: Q01DX011 (ip), vehicle: carboxymethylcellulose (CMC)) was 14 % of control and 44 % of control. The T/C (dose: 160.0 mg/kg/injection, schedule: Q01DX011 (ip), vehicle: carboxymethylcellulose (CMC)) was 5 % of control and 36 % of control.

For `CCCCNc1nc(N)nc(Nc2ccc(Br)cc2)c1N=O`, the T/C (dose: 400.0 mg/kg/injection, schedule: Q01DX011 (ip), vehicle: carboxymethylcellulose (CMC)) was 16 % of control and 51 % of control.

In the case of `Nc1nc2n[nH]nc2c(=O)[nH]1`, the T/C (dose: 43.36 mg/kg/injection, schedule: Q01DX011 (ip), vehicle: carboxymethylcellulose (CMC)) was 29 % of control and 89 % of control, the T/C (dose: 54.2 mg/kg/injection, schedule: Q01DX011 (ip), vehicle: carboxymethylcellulose (CMC)) was 10 % of control, 40 % of control, 80 % of control and the T/C (dose: 72.26 mg/kg/injection, schedule: Q01DX011 (ip), vehicle: carboxymethylcellulose (CMC)) was 5 % of control and 51 % of control.

With `C/C(=N\NC(=O)c1ccncc1)c1cccc(Cl)c1` the T/C [1] was 55 % of control and 108 % of control and the T/C [2] was 45 % of control and 77 % of control.

For `CCCCOP(=O)(N1CC1C)N1CC1C` (stereo unspecified), the T/C (dose: 1.0 mg/kg/injection, schedule: Q01DX011 (ip), vehicle: saline) was 71 % of control, 76 % of control, 98 % of control and the T/C (dose: 16.0 mg/kg/injection, schedule: Q01DX011 (ip), vehicle: saline) was 32 % of control and 101 % of control.

For `Nc1c(Br)cc2c(c1Br)Cc1cc([N+](=O)[O-])ccc1-2`, the T/C (dose: 25.0 mg/kg/injection, schedule: Q01DX011 (ip), vehicle: other) was 48 % of control and 114 % of control and the T/C (dose: 55.0 mg/kg/injection, schedule: Q01DX011 (ip), vehicle: other) was 34 % of control and 78 % of control.

For `NC1(C(=O)O)CCCC1`, the T/C (dose: 17.8 mg/kg/injection, schedule: Q01DX011 (ip), vehicle: carboxymethylcellulose (CMC)) was 45 % of control and 72 % of control and the T/C (dose: 26.25 mg/kg/injection, schedule: Q01DX011 (ip), vehicle: carboxymethylcellulose (CMC)) was 15 % of control and 81 % of control.

In the case of `COc1ccccc1NC(=O)CSC(N)=O`, the T/C (dose: 100.0 mg/kg/injection, schedule: Q01DX011 (ip), vehicle: methylcellulose (MC)) was 63 % of control and 89 % of control, the T/C [3] was 38 % of control and 81 % of control and the T/C (dose: 400.0 mg/kg/injection, schedule: Q01DX011 (ip), vehicle: methylcellulose (MC)) was 22 % of control and 49 % of control.

With `C[C@]12CCC(=O)C=C1CC[C@@H]1[C@@H]2[C@@H](O)C[C@@]2(C)[C@H]1CC[C@]2(O)C(=O)CF` the T/C (dose: 25.0 mg/kg/injection, schedule: Q01DX011 (sc), vehicle: steriod suspending solution) was 20 % of control and 46 % of control.

`C(=N\OCCc1ccccc1)/c1cccnc1` was tested, and the T/C (dose: 133.0 mg/kg/injection, schedule: Q01DX011 (ip), vehicle: methylcellulose (MC)) was 63 % of control and 118 % of control and the T/C [3] was 60 % of control and 104 % of control.
